# Test results: PubChem BioAssay AID686978 (National Center for Advancing Translational Sciences (NCATS), 2013)
# The campaign covered roughly 420,000 compounds. About 64,000 (15%) were called active. Inconclusive results, whose numbers are uncertain, are shown with a selection of clear calls. Calls come from the whole dose curve; as a rule, active = well fitted inhibition curve with a large enough effect; inconclusive = small, poorly fitted or top-dose-only effect; inactive = flat fitted curve, though single readings scatter. No potency is given beside an inconclusive call; the fits are too rough.
# Assay: qHTS for Inhibitors of human tyrosyl-DNA phosphodiesterase 1 (TDP1): qHTS in cells in absence of CPT; note: nearly all actives have a fitted effect of over 55% in size
# Settings: DT40 Tdp1-/- hTDP1 cells, no CPT, ATP luminescence, 48 h; activity change, negative = growth inhibition: at 46.2 µM (top of the series) unless noted
# In short: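 Growth kinetics read by CellTiter-Glo luminescence after ≥48 hr at 37 °C. Cells: DT40 Tdp1-/- stably carrying human TDP1, 400 per well, compound exposure in the absence of CPT (DMSO vehicle).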
# % is set by controls: 0 for no effect and ±100 for the full control effect; potency is the fitted concentration of half-maximal effect; tags give direction and shape of the fitted curve.
Compound,Potency,"activity change, negative = growth inhibition"
O=C(c1ccc(Cl)s1)N1CCN(c2ncccn2)CC1,"inconclusive [inhibitor, partial curve]",
COCCn1c(=NC(=O)CSC(C)=O)sc2cc(F)ccc21,active: 23.1 µM,
O=C(Cn1ncc2c3ccccc3n(Cc3ccc(F)cc3)c2c1=O)NC1CCCCCC1,"inconclusive [inhibitor, single point]",
CCOC(=O)C1=CCC(C(C)(C)C)N(S(=O)(=O)c2ccc(C)cc2)C1 (stereo unspecified),"inconclusive [inhibitor, single point]",
CC1CCCCN1C(=O)CN1CCN(S(=O)(=O)c2ccc(Br)cc2Cl)CC1 (stereo unspecified),,inactive: -16.1%
COc1cc(C(=O)NC(=S)Nc2ccccc2N2CCCC2)cc(OC)c1OC,active: 20.6 µM,
C[C@@H]1C(=O)N(c2ccccc2)[C@@H]1c1ccncc1,,inactive: -16.3%
CCCNC(=O)C1(CC2CC(c3ccccc3)=NO2)CCN(C(=O)C2CCCC2)CC1 (stereo unspecified),,inactive: -7.48%
CCc1ccccc1NC(=O)C/C(C)=N/NC(=O)COc1ccccc1C,,inactive: 1.69%
O=C(Nc1ccccc1)c1cnc2ccccc2n1,"inconclusive [inhibitor, full curve, poor fit]",
CC(=O)NCCc1nc2ccccc2n1CCc1ccccc1,"inconclusive [inhibitor, partial curve]",
Cc1nc([N+](=O)[O-])c(Sc2nc3ccc([N+](=O)[O-])cc3[nH]2)n1Cc1ccccc1,active: 8.2 µM,
CC(C)Oc1ccc(CNC(=O)c2ccc3c(c2)N(Cc2ccc(F)cc2)CCS3)cc1,active: 7.31 µM,
O=C(Nc1nnc(-c2ccccn2)o1)c1cccc(Br)c1,"inconclusive [inhibitor, single point]",
COCCN(C(=S)Nc1ccccc1C)C(C)c1cccs1 (stereo unspecified),"inconclusive [inhibitor, single point]",
O=C(c1ccccc1NS(=O)(=O)c1cccc(C(F)(F)F)c1)N1CCc2ccccc21,"inconclusive [inhibitor, single point]",
COCCCNC(=O)c1ccc(CSCc2ccc(C)cc2)o1,"inconclusive [inhibitor, partial curve]",
O=C(COc1ccc(Cl)cc1)N(Cc1ccccc1)c1ccccn1,,inactive: -15.9%
CC(C)c1cc2cc3ccc(=O)oc3cc2o1,"inconclusive [inhibitor, partial curve]",
COc1ccc2[nH]c3c(=O)n(/N=C/c4ccc(OC)c(CN5CCCC5)c4)c(C)nc3c2c1,"inconclusive [inhibitor, single point]",
Cc1ccc(C(=O)N/N=C/c2cccc(OC(=O)/C=C/c3ccco3)c2)cn1,"inconclusive [inhibitor, partial curve]",
c1c(CC2CCCC2)nnn1C[C@H]1CC[C@@H]([C@@H]2CC[C@H](Cn3cc(CC4CCCC4)nn3)O2)O1,"inconclusive [inhibitor, single point]",
C(=C\c1c[nH]c2ccccc12)/c1ccc2ccccc2n1,"inconclusive [inhibitor, single point]",
COc1cc(C(O)c2nc(-c3cccc(C#N)c3)cs2)ccc1F (stereo unspecified),"inconclusive [inhibitor, single point]",

Compound,Potency,"activity change, negative = growth inhibition"
Cn1nnnc1SCC(=O)Nc1nc(-c2ccccc2)c(-c2ccccc2)o1,"inconclusive [inhibitor, single point]",
COc1cc2c(cc1OC)C(COc1ccccc1OC)N(C(=O)c1ccc(S(=O)(=O)N3CCCC3)cc1)CC2 (stereo unspecified),"inconclusive [inhibitor, single point]",
CCOC(=O)C1=C(C)N=c2sc(=Cc3ccc(OCC(=O)O)cc3)c(=O)n2C1c1ccc(Cl)cc1 (stereo unspecified),"inconclusive [inhibitor, single point]",
O=C(O)C1C2C=CC(C2)C1C(=O)NCCc1ccncc1 (stereo unspecified),,inactive: -16.5%
O=C(CN1CCN(c2ccccc2O)CC1)Nc1cc([N+](=O)[O-])ccc1Cl,"inconclusive [inhibitor, single point]",
O=C(CSc1nnc(NC(=O)c2ccco2)s1)Nc1ccc(F)cc1,,inactive: -2.88%
O=C(CCc1nc2ccccc2c(=O)[nH]1)Nc1ccc(F)c([N+](=O)[O-])c1,"inconclusive [inhibitor, partial curve]",
Cc1scc(-c2n[nH]c(=S)n2C(C)c2ccccc2)c1C (stereo unspecified),active: 16.4 µM,
Cc1cc(C)nc(/N=C(\N)Nc2ccc(OCc3ccccc3)cc2)n1,active: 11.6 µM,
CCC1(Cc2ccccc2)NC(=O)c2ccccc2O1 (stereo unspecified),"inconclusive [inhibitor, partial curve, poor fit]",
Cc1ccc2c(CN3CCN(Cc4ccc5c(c4)OCO5)CC3)cc(=O)oc2c1C,"inconclusive [inhibitor, single point]",
O=C(c1ccccc1F)N1CCN(c2ccc([N+](=O)[O-])cc2-n2cccc2)CC1,"inconclusive [inhibitor, single point]",
COc1ccc(-c2cc(C(=O)Nc3ccc(S(=O)(=O)Nc4ncccn4)cc3)c3ccccc3n2)cc1,"inconclusive [inhibitor, full curve, poor fit]",
COc1cc(C(=O)OCC2CC(c3ccccc3)=NO2)cc(OC)c1OC (stereo unspecified),,inconclusive: -30.7% [inhibitor]
Cc1onc(-c2ccccc2Cl)c1C(=O)N1CCN(C)CC1,,inactive: -3.16%
O=C(Nc1ccc(Br)cc1)c1ccc(CSC2=NCCS2)cc1,"inconclusive [inhibitor, full curve, poor fit]",
O=C(Nc1ccc2c(c1)OCO2)c1ccc(=O)[nH]n1,,inactive: 18%
Cc1cc(=O)oc2c(C)c(OC(=O)c3ccco3)ccc12,,inactive: -20.9%
CCCCCCN1C[C@H](O)[C@@H](n2cc(-c3ccc(F)cc3)nn2)C[C@@H]1c1ccc(C)cc1,active: 23.1 µM,
Cc1ccccc1SCC(=O)Nc1ccc(N2CCOCC2)cc1,"inconclusive [inhibitor, partial curve, poor fit]",
COc1ccc(C)cc1NC(=O)CN1CCCN(S(=O)(=O)c2ccc(Br)cc2)CC1,active: 9.2 µM,
COCC(=O)N1CCC2(CCCN(Cc3cc(C(F)(F)F)cc(C(F)(F)F)c3)C2)CC1,"inconclusive [inhibitor, single point]",
CC1CC2(CCCCC2)N2C(=O)C(=O)c3cccc1c32 (stereo unspecified),"inconclusive [inhibitor, single point]",
CCOc1ccc2[nH]c(C(=O)N/N=C/c3ccc(OC)cc3)cc2c1,active: 0.58 µM,

Compound,Potency,"activity change, negative = growth inhibition"
O=c1[nH]c(C2CCCCC2)nc2ccccc12,,inactive: 0.271%
COc1cc(/C=N/OCC(=O)NC2CCCCC2C)ccc1OCc1ccc(Cl)cc1 (stereo unspecified),active: 18.4 µM,
Cc1ccc(-n2c(N)c(C(=O)N3CCCCC3)sc2=S)cc1,"inconclusive [inhibitor, single point]",
Cc1ccc(-c2csc(N3CCN(c4cc5c(cc4Cl)nc(-c4ccncc4)n5CCN4CCCCC4)CC3)n2)cc1,"inconclusive [inhibitor, single point]",
COCCCNC(=O)CN1C(=O)COc2ccc(S(=O)(=O)N3CCOCC3)cc21,inactive,
Cc1ccc(Nc2cccc(C(F)(F)F)c2)nn1,"inconclusive [inhibitor, partial curve]",
CC(NS(=O)(=O)c1ccc2c(c1)CC(=O)N2C)c1ccccc1 (stereo unspecified),"inconclusive [inhibitor, single point]",
COc1ccccc1C(=O)N1CCCC(c2nc(-c3cc(OC)c(OC)c(OC)c3)no2)C1 (stereo unspecified),"inconclusive [inhibitor, partial curve, poor fit]",
O=C(O)Cc1cccc2ccccc12,"inconclusive [inhibitor, single point]",
COc1cc(C2C(C#N)=C(C)NC3=C2C(=O)c2ccccc23)cc(OC)c1OC (stereo unspecified),active: 0.58 µM,
CCOC(=O)N1CCC(Nc2c(NCCCN(C)Cc3ccccc3)c(=O)c2=O)CC1,,inactive: -14.4%
O=C(CCNC(=O)C1CCN(S(=O)(=O)c2ccccc2)CC1)Nc1cccc(C(F)(F)F)c1,"inconclusive [inhibitor, partial curve]",
O=C1COc2cc(O)ccc21,"inconclusive [inhibitor, single point]",
Cc1cccc(C(=O)c2cnc3ccccc3c2-c2ccccc2)c1,active: 25.9 µM,
CCOC(=O)C1CCN(C(c2cc3ccc(C)c(C)c3[nH]c2=O)c2nnnn2C2CCCCC2)CC1 (stereo unspecified),"inconclusive [inhibitor, single point]",
CC(=O)c1c(N2CCN(CCO)CC2)nc(=S)n(-c2ccccc2)c1C,,inactive: 13.8%
Cc1c(/C=N\NC(=O)C2(C)CC2(Cl)Cl)cnn1C (stereo unspecified),,inactive: 0.115%
CC(=O)Nc1ccc(Nc2nc(Nc3ccc(Cl)cc3)nc(N3CCOCC3)n2)cc1,active: 0.794 µM,
COC(=O)c1cccc(Nc2c(-c3ccc(O)cc3)nc3nc[nH]n23)c1,"inconclusive [inhibitor, single point]",
COC(=O)C[C@H](NC(=O)Cn1cc(C)c(=O)[nH]c1=O)C(=O)OC,,inactive: -12.7%
Cc1cc(C(=O)N/N=C/c2cccc([N+](=O)[O-])c2O)n[nH]1,"inconclusive [inhibitor, single point]",
FC(F)(F)c1cc(CN2CC[C@@]3(CCCNC3)C2)cc(C(F)(F)F)c1,active: 14.6 µM,
CCOC(=O)Cn1nnnc1CN(Cc1cccs1)Cc1cc2cc(C)ccc2[nH]c1=O,"inconclusive [inhibitor, single point]",
